Source: PMC7819943, “Rice protein-binding microarrays: a tool to detect cis-acting elements near promoter regions in rice”
Some of the results follow.

What follows are sequences tested against T1, OsWOX13 (Oryza sativa, UniProt Q5QMM3 1-267) (assay: protein-binding microarray (RPBM); PBS, 2% BSA, 51.3 ng/ul salmon testes DNA, 50 uM zinc acetate, 200 nM TF, 25 C, 1 h; high values mean tight binding). Conditions: protein: recombinant; tags: N-terminal polyhistidine and DsRed monomer fusion (pET32a); label: CyDye5-dUTP incorporated in the synthesized complementary strand; 3' TTTTT single-stranded linker to array surface; dsDNA, one strand shown.
T1 sequence: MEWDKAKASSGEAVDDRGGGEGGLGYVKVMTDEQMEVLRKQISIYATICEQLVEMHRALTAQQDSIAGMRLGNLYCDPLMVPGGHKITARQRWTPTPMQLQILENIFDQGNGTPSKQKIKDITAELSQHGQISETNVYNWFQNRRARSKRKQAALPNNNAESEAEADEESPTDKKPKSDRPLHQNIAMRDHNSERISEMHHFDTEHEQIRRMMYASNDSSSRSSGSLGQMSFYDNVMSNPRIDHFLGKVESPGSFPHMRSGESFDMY
How it was run: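 Binding signal here means per-feature fluorescence intensity in arbitrary units. The values were read on an Axon 4000B scanner after a custom Agilent array, double-stranded by primer extension with Cy5-dUTP, was incubated with 200 nM protein at 25 °C for 1 h in PBS with 2% BSA, salmon testes DNA and 50 µM zinc acetate, then washed. The proteins were transcription factors with an N-terminal polyhistidine tag and DsRed, expressed in E. coli BL21-CodonPlus and purified on Ni–NTA.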

Sequence	binding signal
TAGAGTAGATTATCAGATTACAGTAATATAGCTTATAGATCGGAGTCACCTAGTGCAG	4280 fluorescence intensity (a.u.)
ATTAATGAATCTAGACATATATACATCATTATAAATGTGGCGGAGTCACCTAGTGCAG	5760 fluorescence intensity (a.u.)
AGGTGGCCCCATTAATTGATGATGAAATGCAAACCTAAATCGGAGTCACCTAGTGCAG	9480 fluorescence intensity (a.u.)
ACCATTATTCCACAATTATTCTCAATCTAGTAGGATGCTCCGGAGTCACCTAGTGCAG	7530 fluorescence intensity (a.u.)
CGATTTAATTCATTTTCAATGATTGGTTATCAAATGAATACGGAGTCACCTAGTGCAG	19400 fluorescence intensity (a.u.)
CTTGACGACGATTTCATGGTAAGAATATTTTGATTACATGCGGAGTCACCTAGTGCAG	4670 fluorescence intensity (a.u.)
GGCATTAAGAGACAGCAATCAGATTAACAAACCATCCAGGCGGAGTCACCTAGTGCAG	5790 fluorescence intensity (a.u.)
CTTAATAACTGGGATACCTCAATAATTTCAGATGGCTGCGCGGAGTCACCTAGTGCAG	10600 fluorescence intensity (a.u.)
ATAATTGGCATGTGTCACGTATCCAGTTTGGTATGGCAGTCGGAGTCACCTAGTGCAG	41500 fluorescence intensity (a.u.)
CAATAAACCGGTCTATCACCGTCCGATCCTTACCGACCTGCGGAGTCACCTAGTGCAG	4190 fluorescence intensity (a.u.)
TCTAATTTTAAATATATGACATTATTAACTTTTAAATATGCGGAGTCACCTAGTGCAG	17700 fluorescence intensity (a.u.)
TCTCTATAATTAAACATTCCAATTTCGAAAATGTTGTTAGCGGAGTCACCTAGTGCAG	8580 fluorescence intensity (a.u.)
GCTAATTATTCTTTCAGTTATAGGCATCGTACCCGTCGACCGGAGTCACCTAGTGCAG	23300 fluorescence intensity (a.u.)
GAAGTTAGTTTATCAATTAAGCATTTGGTTTAGGGATAAGCGGAGTCACCTAGTGCAG	9300 fluorescence intensity (a.u.)
CCATCACACAGATTAATTTGCTTCCATGCTAGGAATAAGTCGGAGTCACCTAGTGCAG	10900 fluorescence intensity (a.u.)
GTACTTGATCATGGATGATTAGGGCACTTGTGCGTGTGTTCGGAGTCACCTAGTGCAG	11200 fluorescence intensity (a.u.)
GAAATGGGCCTAATTGTCGGTCACATACCGAGTAAATGGGCGGAGTCACCTAGTGCAG	4300 fluorescence intensity (a.u.)
TCAGTACAAAACTAGATTAATTTGAAGGCAAAATTTGCTACGGAGTCACCTAGTGCAG	6350 fluorescence intensity (a.u.)
AATCAAATTGAAGTATCAGATGCAGCTTCAGGTTCTGGAGCGGAGTCACCTAGTGCAG	19800 fluorescence intensity (a.u.)
TGTTAAATTTTACATCTATGGACTGACAAATGAATATTTTCGGAGTCACCTAGTGCAG	6780 fluorescence intensity (a.u.)
TATATGATTTATTGAATCATTGATTTGTCACATATATCAACGGAGTCACCTAGTGCAG	29000 fluorescence intensity (a.u.)
CATTGATAGATTGCAAAAGCTAGCTGTCTGGGAGATGGTGCGGAGTCACCTAGTGCAG	49500 fluorescence intensity (a.u.)
TTAATGATAGGTACCTTTGGGGAGATATACAATAGTCGCTCGGAGTCACCTAGTGCAG	7800 fluorescence intensity (a.u.)
AACCAAAACAGCAACCAATCAACAAGCGATCGAGCACCTTCGGAGTCACCTAGTGCAG	7160 fluorescence intensity (a.u.)
CATAAACCTAGACGTTAATTATGATGTTTTGGACTAGGTTCGGAGTCACCTAGTGCAG	16000 fluorescence intensity (a.u.)
TCACCTTGATTTCAATCATTGGACAAGTGTCCTAGAAAGTCGGAGTCACCTAGTGCAG	55300 fluorescence intensity (a.u.)
ATGCAGTCCTTGATTGTTTTGGTGCATTAATTTGTGGATCCGGAGTCACCTAGTGCAG	17800 fluorescence intensity (a.u.)

Sequence	binding signal
TGCCACGTCAATCTATCATAACCGGCGGGATAAATCCAAACGGAGTCACCTAGTGCAG	6830 fluorescence intensity (a.u.)
CTAGTAGCTAATTAATTATTTGATGCTCATGGTGATGGTGCGGAGTCACCTAGTGCAG	23000 fluorescence intensity (a.u.)
TGAAGGAAGCTAATTACAGAATTAGCATACATGTTGCCGCCGGAGTCACCTAGTGCAG	3940 fluorescence intensity (a.u.)
AGATTTAATTGTAACGAACACAATGGTGTAATCGGATGGTCGGAGTCACCTAGTGCAG	24100 fluorescence intensity (a.u.)
ACATGCCCTTAATTGAAGCCACAAATTCCAGTCCAAATCCCGGAGTCACCTAGTGCAG	19400 fluorescence intensity (a.u.)
TAACTAAATTTATAGACAAATATAGTAATATTTATAATACCGGAGTCACCTAGTGCAG	7770 fluorescence intensity (a.u.)
TTCTGATTAGGCTGCCACATTGGCGGCACGTGTGATAGCTCGGAGTCACCTAGTGCAG	29100 fluorescence intensity (a.u.)
AGGCACTAAAATAATCTAATTGATTAACTAATCGGTCACCCGGAGTCACCTAGTGCAG	25300 fluorescence intensity (a.u.)
ATATTTCTTTGTCAAGTTTGATTACTGGCTCGACATGGGGCGGAGTCACCTAGTGCAG	3560 fluorescence intensity (a.u.)
ATATAAATATTAGTAATCAATTGAGGGAACATTTGATTTGCGGAGTCACCTAGTGCAG	11300 fluorescence intensity (a.u.)
GGAGATTGAGATGGTCGGAAATTTAAACAAGACGCTTTCTCGGAGTCACCTAGTGCAG	9750 fluorescence intensity (a.u.)
ATCCGACAAAGTGATTTGTAAGATTGTTCACAAAATGTACCGGAGTCACCTAGTGCAG	3290 fluorescence intensity (a.u.)
ATATATATATATATATATATATAAGTTTCCACGAATAAGGCGGAGTCACCTAGTGCAG	16300 fluorescence intensity (a.u.)
GCTAATTAAGCTTCCAACTCTGCCTCGCCCTCGCTCTCCTCGGAGTCACCTAGTGCAG	24500 fluorescence intensity (a.u.)
GATCCTTCAAGCATCAATCACCTACCGATTTACCAACCCACGGAGTCACCTAGTGCAG	3920 fluorescence intensity (a.u.)
TGGTGTAGAGAAGTACAATACATGTATGCAAGCTTACATGCGGAGTCACCTAGTGCAG	7210 fluorescence intensity (a.u.)
CCGAAATTGTGAACCCTGAGCTAGTCAGTCCCATCCTTTTCGGAGTCACCTAGTGCAG	3650 fluorescence intensity (a.u.)
CCTGCCAATCTACCATACATGCACCACTGCTCCACCGCCACGGAGTCACCTAGTGCAG	3460 fluorescence intensity (a.u.)
CAACATGTTTGACTAATTACATAGTGTATTGATCCCAAGGCGGAGTCACCTAGTGCAG	6530 fluorescence intensity (a.u.)
GCTCGATCCATTTAGGTAATTACTGCTCAACTAGCGATGACGGAGTCACCTAGTGCAG	10300 fluorescence intensity (a.u.)
AGATAATTGTGTCATCAGGAGGCCATGGCCATGATAGCAACGGAGTCACCTAGTGCAG	15000 fluorescence intensity (a.u.)
TCAAATCTTACATGTAAATTTTAAAATTTACATTGTAATTCGGAGTCACCTAGTGCAG	7560 fluorescence intensity (a.u.)
AGCCTAATTAATACATAATTAGCACATGTTTACTGTAGCACGGAGTCACCTAGTGCAG	55100 fluorescence intensity (a.u.)
TCTACTAATTAGGGATATTTTGGTCCATTATCCTTCTCCCCGGAGTCACCTAGTGCAG	38300 fluorescence intensity (a.u.)
CCAAACTGGGCTTAACCGAACGCACACTTTCTTGTAGGCCCGGAGTCACCTAGTGCAG	8040 fluorescence intensity (a.u.)
GCAATAATCAATCTATATAAGCTAACACAATTGTTGACAACGGAGTCACCTAGTGCAG	16800 fluorescence intensity (a.u.)
CATTATCAATTCCCTCGTGTAAACTCCCAATCTCCTTCCCCGGAGTCACCTAGTGCAG	3650 fluorescence intensity (a.u.)
